Laboratory results as given in PubChem BioAssay AID1347417 (National Center for Advancing Translational Sciences (NCATS), 2020).
The whole screen tested about 120,000 compounds, of which about 5,300 (4.4%) were called active. Inconclusive results, whose numbers are uncertain, are shown with a selection of clear calls. Calls come from the whole dose curve; as a rule, active = well fitted inhibition curve with a large enough effect; inconclusive = small, poorly fitted or top-dose-only effect; inactive = no such curve, though single readings can be large or run the other way. Where the call is inconclusive, the potency comes from a doubtful curve fit.

assay: qHTS Primary assay for Inhibitors of Plasmodium falciparum Dd2 growth in vitro; note: nearly all actives have a fitted effect of over 65% in size;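 for activity, negative = inhibition: plate controls were DMSO vehicle for no effect and reference drug for full effect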; conditions: P. falciparum Dd2 growth, SYBR Green, 72 h; activity, negative = inhibition: at 28.9 µM (top of the series) unless noted; series mostly up to 28.9 µM
Method in brief: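 Readout: SYBR Green fluorescence, 485 nm excitation, 535 nm emission, after ~16 h lysis at 37C. Before that, Dd2-infected red cells (2.5% hematocrit) grew 72 h with compound, 29 uM top final concentration.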
Potency is the fitted concentration of half-maximal effect; tags give direction and shape of the fitted curve.

Row | Compound | Potency | activity, negative = inhibition | outcome
1 | O=C(NCCc1ccccc1)C1CCN(c2cn[nH]c(=O)c2)C1 (centres undefined) | inconclusive: 12.6 µM [inhibitor, single point] | – | –
2 | Cc1ccc(C)c(NC(=O)Nc2nnc(N(CC(C)C)CC(C)C)s2)c1 | inconclusive: 0.0891 µM [inhibitor, full curve, poor fit] | – | –
3 | Cc1ccc(C)c(Cn2c(=O)n(-c3ccc(Cl)cc3)c(=O)c3c4c(sc32)CCC4)c1 | – | inactive: 22.8% | –
4 | O=C(c1ccc(OC(F)(F)F)cc1)N1CCN(c2cc(-c3ccc(Cl)cc3)[nH]n2)CC1 | inconclusive: 3.16 µM [inhibitor, single point] | – | –
5 | Cn1cccc1C(=O)N1CCCCCCNC(=O)[C@@H]2CCC[C@@H]21 | inconclusive: 20 µM [inhibitor, partial curve, poor fit] | – | –
6 | COc1ccc(CCNC(=O)C2CC(=O)N(CCc3ccccc3)C2)cc1OC (centres undefined) | – | inactive: 70.4% | –
7 | COc1cccc(NC(=O)c2c(-c3ccc(C)cc3)nnc3ccccc23)c1 | inconclusive: 20 µM [inhibitor, partial curve, poor fit] | – | –
8 | COc1cccc(NC(=O)c2cnc3c(c2)N(C(=O)Cc2ccc(C(C)C)cc2)CCC3)c1 | inconclusive: 14.1 µM [inhibitor, partial curve, poor fit] | – | –
9 | COc1ccc(C2C=C(c3ccccc3)Nc3nc(NS(=O)(=O)c4ccccc4)nn32)cc1 (centres undefined) | inconclusive: 0.794 µM [inhibitor, full curve] | – | –
10 | Cc1nn(C)c(C)c1CCC(=O)NCCc1ncc(C)n1C1CC1 | inconclusive: 5.01 µM [inhibitor, partial curve] | – | –
11 | Fc1ccc(-c2nc(CC3CCNC3)no2)cc1 (centres undefined) | inconclusive: 14.1 µM [inhibitor, partial curve, poor fit] | – | –
12 | Cc1ccccc1N1CCN(C2CCCN(C/C=C/c3ccc(F)cc3)C2)CC1 (centres undefined) | inconclusive: 14.1 µM [inhibitor, single point] | – | –
13 | Cc1cc(C(=O)N2CCCCCCNC(=O)[C@@H]3C[C@@H](c4nc(Cc5ccccc5)no4)C[C@@H]32)nn1C | inconclusive: 0.794 µM [inhibitor, partial curve, poor fit] | – | –
14 | O=C(COc1ccc(F)cc1)Nc1ccc2nc(SCC(=O)N3CCCC3)sc2c1 | inconclusive: 17.8 µM [inhibitor, single point] | – | –
15 | Cc1ccc(-c2cn3c(n2)sc2cc(C(=O)NCCC4=CCCCC4)ccc23)c(C)c1 | inconclusive: 8.91 µM [inhibitor, partial curve] | – | –
16 | O=C(NCc1ccccc1)[C@H]1CN(Cc2ccccc2)C[C@H]1C(=O)O | inconclusive: 11.2 µM [inhibitor, partial curve, poor fit] | – | –
17 | CCOc1ccc(S(=O)(=O)NCC(c2ccc(N(C)C)cc2)N2CCCC2)cc1 (centres undefined) | inconclusive: 7.08 µM [inhibitor, partial curve] | – | –
18 | COCCNc1nc2cc(C(=O)N3CC[C@H](CO)[C@@H](O)C3)ccc2n1C | inconclusive: 0.141 µM [inhibitor, full curve, poor fit] | – | –
19 | CCN1C(=O)C2(CCN(S(=O)(=O)c3ccc(C(C)C)cc3)CC2)c2ccccc21 | inconclusive: 8.91 µM [inhibitor, partial curve, poor fit] | – | –
20 | O=C(c1ccc2c(c1)N(Cc1ccc(Cl)cc1)C(=O)c1ccccc1S2(=O)=O)N1CCCCCC1 | inconclusive: 20 µM [inhibitor, single point] | – | –

Row | Compound | Potency | activity, negative = inhibition | outcome
21 | Cc1cccc(CNC(=O)C2CCN(c3cn[nH]c(=O)c3)C2)c1 (centres undefined) | – | inactive: -1.15% | –
22 | COCCCNC(=O)C(NC(=O)c1ccc(OC)cc1)C1CCN(C(=O)c2cccc(OC)c2)CC1 (centres undefined) | inconclusive: 0.316 µM [inhibitor, full curve, poor fit] | – | –
23 | Cc1cccc(C)c1Nc1c(-c2ccccc2Cl)nc2cnccn12 | inconclusive: 17.8 µM [inhibitor, single point] | – | –
24 | Cc1cc(CNC(=O)C2(C(N)=O)CC2)c2[nH]c(-c3ccccc3)c(C)c2c1 | – | inactive: -23.3% | –
25 | CCCCN1CC(c2nc3ccccc3n2CCCCOc2ccccc2C)CC1=O (centres undefined) | active: 10 µM | – | –
26 | COCCN(Cc1cnn(C)c1)C(=O)c1ccc2nc(C)cn2c1 | – | inactive: -0.972% | –
27 | CCCN(C)C(=O)Cc1ccc(N(Cc2ccccc2)C(=O)c2ccco2)cc1 | inconclusive: 3.16 µM [inhibitor, single point] | – | –
28 | Cc1ccc(N(CC(=O)N2CCN(c3ccc(F)cc3)CC2)S(=O)(=O)c2c(C)noc2C)cc1 | inconclusive: 2.24 µM [inhibitor, full curve, poor fit] | – | –
29 | CC(C)(C)C(=O)NCCc1nc2ccccc2n1CCCCOc1ccccc1 | – | inconclusive: -47.5% [inhibitor] [at 5.79 µM] | –
30 | COc1ccc(-n2nc3c(N4CCC(C(=O)NCc5ccccc5C)CC4)nnc(C)c3c2C)cc1 | inconclusive: 10 µM [inhibitor, single point] | – | –
31 | CCOC(=O)N1CCC(NC(=O)c2c(C)nn(-c3cccc(C)c3)c2-n2cccc2)CC1 | inconclusive: 17.8 µM [inhibitor, single point] | – | –
32 | Cc1ccc2c(=O)c(C(=O)c3cccc(Cl)c3)cn(CC(=O)NC3CCCCC3)c2n1 | inconclusive: 3.98 µM [inhibitor, single point] | – | –
33 | C(=C\c1ccccc1)/CN1CCN(Cc2nc(COc3ccccc3)no2)CC1 | inconclusive: 12.6 µM [inhibitor, single point] | – | –
34 | CC(=O)N1CCC2(CC1)C(=O)NCN2Cc1ccc(Cl)cc1 | – | inactive: 1% [at 44.1 µM] | –
35 | CCOc1ccc(C2c3c(-c4cc(C)ccc4O)n[nH]c3C(=O)N2Cc2cccnc2)cc1OCC (centres undefined) | active: 11.2 µM | – | –
36 | COC(=O)[C@H](NC(=O)C1=C[C@@H](NC(=O)CS(=O)(=O)c2ccccc2)[C@@H](O)[C@H](O)C1)C(C)C | inconclusive: 3.98 µM [inhibitor, single point] | – | –
37 | O=C(NCCc1ccncc1)C1CN(C(=O)c2cc(F)cc(F)c2)CC12CCOCC2 (centres undefined) | – | inactive: -0.122% | –
38 | COCC1CN(C)CC12CCN(S(=O)(=O)Cc1ccc(F)cc1)CC2 (centres undefined) | inconclusive: 4.47 µM [inhibitor, partial curve, poor fit] | – | –
39 | CCS(=O)(=O)N1CCCCCCNC(=O)[C@@H]2C[C@@H](C(=O)N3CCc4ccccc4C3)C[C@@H]21 | – | – | inactive
